In ChEMBL document CHEMBL4888484, “Replenishing the malaria drug discovery pipeline: Screening and hit evaluation of the MMV Hit Generation Library 1 (HGL1) against asexual blood stage Plasmodium falciparum ,using a nano luciferase reporter read-out” (2022):
Out of some 150,000 compounds screened, about 540 (0.36%) showed an effect of 50% or more. The list shows a part of the results.

Test system: Plasmodium falciparum
Assay: Primary screen in NF54 nanoGlo assay, in single point, at 2uM, 72h; a lower Z score goes with more inhibition
Assay type: functional, Erythrocyte
Details: timepoint 72 hour

CCN(Cc1ccc(C)o1)C(=O)NCCN1CCCC[C@@H]1CO and CCN(CC1CCN(C2CCN(C)CC2)CC1)C(=O)[C@@H]1COc2c(cccc2OC)C1 are the same in “% Inhibition” value: -5% for the first, -5% for the second.

Compared with Cc1ccc2c(c1)ncc1c(-c3ccccc3)nn(-c3ccc(F)cc3)c12, COc1cccc(CNC(=O)c2ccc(Oc3ccnc(-c4ccc(F)cc4)n3)cc2)c1 is lower in “% Inhibition” value: 34% for the first, -10% for the second.

Compared with CN(C)c1nccc(CN2C[C@H](CO)OC(C)(C)C2)n1, Cc1nccn1CCN(C)c1cc(NC2CC2)nc(N)n1 is lower in “% Inhibition” value: 3% for the first, -1% for the second.

Compared with COc1ccc(N2C(=O)[C@@H](C)CS2(=O)=O)cc1S(=O)(=O)NCc1ccccn1, O=C(NCc1ccon1)c1cccc(S(=O)(=O)N[C@H]2CCOC2)c1 is lower in “% Inhibition” value: 0% for the first, -15% for the second.

First: O=C([C@H]1CCC[C@H](O)C1)N(CCC1=CCCCC1)Cc1ccccc1
Second: O=C([C@@H]1COc2cc(S(=O)(=O)N3CCC(Cc4ccccc4)CC3)ccc2O1)N1CCOCC1
The “% Inhibition” value of the first is lower: -6% for the first, -5% for the second.

CCc1n[nH]c(=O)c(C(=O)Nc2cc(CC(C)(C)C)nn2C)c1CC and C[C@@H](CCc1ccccc1)NC(=O)c1n[nH]c(=O)c2ccccc12 are the same in “% Inhibition” value: -9% for the first, -9% for the second.

CC(C)(C(=O)Nc1nc2ccc(F)cn2n1)c1cccs1 and CN(C)C(=O)CCc1cc2ccccc2nc1O are the same in “% Inhibition” value: -8% for the first, -8% for the second.

First: C[C@@H](c1ccccn1)N(Cc1ccccc1)Cc1nnc2n1CCOCC2
Second: Cc1ccc(CNc2ncccc2-c2nc(-c3ccccc3C)no2)cc1
The “% Inhibition” value of the first is lower: -9% for the first, 11% for the second.

Going from COc1cccc(CN2CCN3C(=O)c4ccccc4OCC[C@@H]4CC[C@@H](NC(=O)NC(C)C)[C@@H](CNC(=O)[C@@H]3C2)O4)c1 to CC(OCC1CCCO1)C(=O)N1CCC(=O)c2cc(O)ccc21 (stereo unspecified), the “% Inhibition” value falls from 5% to -14%.

First: CCc1cc(C(=O)N2CCC3(CC2)[C@H](O)C[C@@H]3O)ccn1
Second: CCN(C(=O)[C@@H]1COCCO1)c1ccc(Br)cn1
The “% Inhibition” value of the first is lower: -9% for the first, -5% for the second.

Going from CCN(Cc1[nH]nc(C)c1Cl)C1CCOCC1 to CN(CC=CCN(C)c1ccn(C)n1)c1ccn(C)n1, the “% Inhibition” value falls from 8% to -10%.

For Cn1ccc(CCNC(=O)c2cnsn2)n1, the “% Inhibition” value was -6%.

Compared with CCN(Cc1ccc(C)o1)C(=O)NCCN1CCCC[C@@H]1CO, CCN(CC1CCN(C2CCN(C)CC2)CC1)C(=O)[C@@H]1COc2c(cccc2OC)C1 is higher in Z score: 0.47 for the first, 0.82 for the second.

Going from Cc1ccc2c(c1)ncc1c(-c3ccccc3)nn(-c3ccc(F)cc3)c12 to COc1cccc(CNC(=O)c2ccc(Oc3ccnc(-c4ccc(F)cc4)n3)cc2)c1, the Z score rises from -4.58 to 1.34.

Going from CN(C)c1nccc(CN2C[C@H](CO)OC(C)(C)C2)n1 to Cc1nccn1CCN(C)c1cc(NC2CC2)nc(N)n1, the Z score rises from -0.61 to 0.14.

First: COc1ccc(N2C(=O)[C@@H](C)CS2(=O)=O)cc1S(=O)(=O)NCc1ccccn1
Second: O=C(NCc1ccon1)c1cccc(S(=O)(=O)N[C@H]2CCOC2)c1
The Z score of the first is lower: -0.05 for the first, 2.25 for the second.

Compared with O=C([C@H]1CCC[C@H](O)C1)N(CCC1=CCCCC1)Cc1ccccc1, O=C([C@@H]1COc2cc(S(=O)(=O)N3CCC(Cc4ccccc4)CC3)ccc2O1)N1CCOCC1 is lower in Z score: 1.29 for the first, 0.53 for the second.

Going from CCc1n[nH]c(=O)c(C(=O)Nc2cc(CC(C)(C)C)nn2C)c1CC to C[C@@H](CCc1ccccc1)NC(=O)c1n[nH]c(=O)c2ccccc12, the Z score rises from 1.38 to 1.65.

First: CC(C)(C(=O)Nc1nc2ccc(F)cn2n1)c1cccs1
Second: CN(C)C(=O)CCc1cc2ccccc2nc1O
The Z score of the first is lower: 0.9 for the first, 1.52 for the second.

Compared with C[C@@H](c1ccccn1)N(Cc1ccccc1)Cc1nnc2n1CCOCC2, Cc1ccc(CNc2ncccc2-c2nc(-c3ccccc3C)no2)cc1 is lower in Z score: 1.46 for the first, -1.26 for the second.

First: COc1cccc(CN2CCN3C(=O)c4ccccc4OCC[C@@H]4CC[C@@H](NC(=O)NC(C)C)[C@@H](CNC(=O)[C@@H]3C2)O4)c1
Second: CC(OCC1CCCO1)C(=O)N1CCC(=O)c2cc(O)ccc21 (stereo unspecified)
The Z score of the first is lower: -0.58 for the first, 2.82 for the second.

Going from CCc1cc(C(=O)N2CCC3(CC2)[C@H](O)C[C@@H]3O)ccn1 to CCN(C(=O)[C@@H]1COCCO1)c1ccc(Br)cn1, the Z score falls from 1.14 to 0.61.

Going from CCN(Cc1[nH]nc(C)c1Cl)C1CCOCC1 to CN(CC=CCN(C)c1ccn(C)n1)c1ccn(C)n1, the Z score rises from -1.6 to 1.16.

Work on Cn1ccc(CCNC(=O)c2cnsn2)n1 yielded a Z score of 0.76.
